This is an account of results in the supplement of paper PMC4604168 (melanoma cell lines).

This is one part of the list. Repeats are few or missing, and single values can be far off.

Among the test systems are G361; IPC-298; IST-MEL1; LB2518-MEL; LOXIMVI; MEL-HO; MZ2-MEL; MeWo; RPMI7951; RVH-421.
Common to all, as to assay: cell count relative to DMSO control; melanoma cells; higher = more viable cells
Holding throughout (settings): library dose: standard library concentration; 72 h
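Note: cells treated in 1,536-well plates, then fixed and DAPI-stained, with nuclei counted from automated high-throughput microscope images.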

In the case of `Cn1cncc1[C@@](N)(c1ccc(Cl)cc1)c1ccc2c(c1)c(-c1cccc(Cl)c1)cc(=O)n2C` [tipifarnib] + CC(C)CCN1c2nc(Nc3cc(F)c(O)c(F)c3)ncc2N(C)C(=O)C1C [BID1870] (first compound 0.05 µM, partner dose 1 µM), the cell count is 46% in the experiment on G361; 63.5% in the experiment with IPC-298; 67.2% with IST-MEL1; 82.8% in the experiment with LB2518-MEL; 54.9% in the experiment on LOXIMVI; 70.1% in the experiment with MEL-HO. Moreover, the cell count with MZ2-MEL was determined as 73.3%; with MeWo, 55.6%; in the experiment with RPMI7951, 36.8%; with RVH-421, 86.7%.
On to `O=c1[nH]nc(Sc2ncc([N+](=O)[O-])s2)n1-c1ccc2c(c1)OCCO2` + COc1cc(N2CCC(N3CCN(C)CC3)CC2)ccc1Nc1ncc(Cl)c(Nc2ccccc2S(=O)(=O)C(C)C)n1 [NVP-TAE684] (first compound 1 µM, partner dose 0.4 µM), for which the cell count came to 98.7% in the experiment with G361; 95.7% in the experiment with IPC-298; 91% in the experiment with IST-MEL1; 83.7% in the experiment with LB2518-MEL; 87.3% in the experiment on LOXIMVI; 77.4% with MEL-HO. In addition, the cell count amounted to 102% in the experiment on MZ2-MEL, 82% with MeWo, 80.5% in the experiment on RPMI7951 and 89.2% with RVH-421.
For the compound `O=C(Nc1cccc(Cl)c1)Nc1ncc(CCNc2ncnc3ccsc23)s1` + COc1cc2ncnc(Nc3ccc(Oc4ccccc4)cc3)c2cc1OC [SrcI1] (first compound 0.004 µM, partner dose 10 µM), the cell count with G361 turned out to be 43%; with IPC-298, 42.8%; with IST-MEL1 it was 56.9%; in the experiment with LB2518-MEL, 87%; with LOXIMVI, 88%; with MEL-HO, 62.8%. Moreover, the cell count with MZ2-MEL is 50.2%; in the experiment on MeWo, 53.2%; with RPMI7951, 38%; with RVH-421, 79%.
In the case of `O=c1[nH]nc(Sc2ncc([N+](=O)[O-])s2)n1-c1ccc2c(c1)OCCO2` + C=C(c1ccc(C(=O)O)cc1)c1cc2c(cc1C)C(C)(C)CCC2(C)C [Bexarotene] (first compound 1 µM, partner dose 10 µM), the cell count in the experiment on G361 is 83.6%; in the experiment with IPC-298, 79.7%; in the experiment with IST-MEL1, 82.2%; in the experiment with LB2518-MEL, 98.8%; in the experiment on LOXIMVI, 106%; in the experiment with MEL-HO, 93.4%. In addition, the cell count in the experiment with MZ2-MEL was 93.1%; in the experiment with MeWo, 98.8%; in the experiment on RPMI7951, 102%; in the experiment on RVH-421 it was 92.4%.
As to `O=c1[nH]nc(Sc2ncc([N+](=O)[O-])s2)n1-c1ccc2c(c1)OCCO2` + C#Cc1cccc(Nc2ncnc3cc(OCCOC)c(OCCOC)cc23)c1 [erlotinib] (first compound 1 µM, partner dose 4 µM), the cell count in the experiment on G361 was 75.4%; in the experiment on IPC-298, 67.5%; in the experiment with IST-MEL1 it was 95.8%; with LB2518-MEL, 69.8%; in the experiment on LOXIMVI, 65.5%; in the experiment on MEL-HO, 79%. In addition, the cell count in the experiment with MZ2-MEL was found to be 70%; in the experiment on MeWo, 78.7%; with RPMI7951 it was 63.9%; in the experiment with RVH-421, 58.5%.
`O=c1[nH]nc(Sc2ncc([N+](=O)[O-])s2)n1-c1ccc2c(c1)OCCO2` + CN(c1ncccc1CNc1nc(Nc2ccc3c(c2)CC(=O)N3)ncc1C(F)(F)F)S(C)(=O)=O [PF562271] (first compound 1 µM, partner dose 0.4 µM): the cell count with G361 came to 80.7%; in the experiment with IPC-298, 97.9%; in the experiment on IST-MEL1, 84.2%; in the experiment with LB2518-MEL it was 93%; in the experiment with LOXIMVI, 112%; in the experiment with MEL-HO, 88.4%. The cell count with MZ2-MEL worked out at 75.9%; in the experiment with MeWo it was 114%; in the experiment on RPMI7951 it was 49.4%; with RVH-421, 80.3%.
On to `C[C@@H]1CCN(C(=O)CC#N)C[C@@H]1N(C)c1ncnc2[nH]ccc12` + NCC(=O)Nc1ccc(-n2nc(C(F)(F)F)cc2-c2ccc3c(ccc4ccccc43)c2)cc1 [OSU03012] (first compound 5 µM, partner dose 5 µM), for which the cell count in the experiment with G361 was found to be 74.6%; with IPC-298, 66.7%; with IST-MEL1, 95.4%; in the experiment on LB2518-MEL it was 108%; with LOXIMVI, 72.1%; in the experiment on MEL-HO, 85.6%. Also, the cell count in the experiment on MZ2-MEL stood at 106%; in the experiment on MeWo, 94.9%; with RPMI7951 it was 118%; with RVH-421, 112%.
In the case of `O=c1[nH]nc(Sc2ncc([N+](=O)[O-])s2)n1-c1ccc2c(c1)OCCO2` + C[C@]1(O)C[C@@H](c2nc(-c3ccc4ccc(-c5ccccc5)nc4c3)c3c(N)nccn32)C1 [OSI906] (first compound 1 µM, partner dose 2 µM), the cell count worked out at 96.1% in the experiment on G361; 96.8% in the experiment on IPC-298; 109% with IST-MEL1; 119% with LB2518-MEL; 76.8% with LOXIMVI; 87% with MEL-HO. Besides, the cell count worked out at 87.2% in the experiment with MZ2-MEL, 85.6% in the experiment on MeWo, 71.4% in the experiment on RPMI7951 and 137% in the experiment with RVH-421.
Regarding `COc1cc(Nc2ncc(F)c(Nc3ccc4c(n3)NC(=O)C(C)(C)O4)n2)cc(OC)c1OC` [Tamatinib] + CC(C)CCN1c2nc(Nc3cc(F)c(O)c(F)c3)ncc2N(C)C(=O)C1C [BID1870] (first compound 2 µM, partner dose 1 µM), the cell count came to 44% in the experiment on G361; 81.5% in the experiment with IPC-298; 48.9% in the experiment with IST-MEL1; 83.4% in the experiment with LB2518-MEL; 63.2% in the experiment with LOXIMVI; 48.3% in the experiment on MEL-HO. Moreover, the cell count in the experiment on MZ2-MEL came to 82.8%; in the experiment with MeWo it was 45%; with RPMI7951, 22.4%; in the experiment with RVH-421, 71.4%.
Turning to `COc1cc(Nc2ncc(F)c(Nc3ccc4c(n3)NC(=O)C(C)(C)O4)n2)cc(OC)c1OC` [Tamatinib] + COc1cc(N2CCC(N3CCN(C)CC3)CC2)ccc1Nc1ncc(Cl)c(Nc2ccccc2S(=O)(=O)C(C)C)n1 [NVP-TAE684] (first compound 2 µM, partner dose 0.4 µM), the cell count in the experiment on G361 is 54.1%; in the experiment on IPC-298 it was 67.4%; in the experiment with IST-MEL1 it was 46.2%; in the experiment with LB2518-MEL it was 65.5%; in the experiment with LOXIMVI, 86.8%; in the experiment on MEL-HO it was 59.5%. Moreover, the cell count was 32.4% in the experiment on MZ2-MEL, 51.8% with MeWo, 13.9% in the experiment on RPMI7951 and 73.7% with RVH-421.
With `COc1cc(Nc2ncc(F)c(Nc3ccc4c(n3)NC(=O)C(C)(C)O4)n2)cc(OC)c1OC` [Tamatinib] + O=c1cc(-c2cccc3c2Sc2ccccc2S3)oc(N2CCOCC2)c1 [KU55933] (first compound 2 µM, partner dose 5 µM), the cell count in the experiment on G361 stood at 59.4%; with IPC-298, 83.8%; in the experiment on IST-MEL1 it was 76.6%; in the experiment with LB2518-MEL, 72.8%; with LOXIMVI it was 45.6%; with MEL-HO it was 71.6%. Also, the cell count turned out to be 71.5% in the experiment on MZ2-MEL, 77.3% with MeWo, 31.6% with RPMI7951 and 98.9% in the experiment on RVH-421.
